The record followed here is paper PMC4974512.

Sequences of proteins named here, by UniProt entry; tags and fusion partners are left off.
UniProt Q04206: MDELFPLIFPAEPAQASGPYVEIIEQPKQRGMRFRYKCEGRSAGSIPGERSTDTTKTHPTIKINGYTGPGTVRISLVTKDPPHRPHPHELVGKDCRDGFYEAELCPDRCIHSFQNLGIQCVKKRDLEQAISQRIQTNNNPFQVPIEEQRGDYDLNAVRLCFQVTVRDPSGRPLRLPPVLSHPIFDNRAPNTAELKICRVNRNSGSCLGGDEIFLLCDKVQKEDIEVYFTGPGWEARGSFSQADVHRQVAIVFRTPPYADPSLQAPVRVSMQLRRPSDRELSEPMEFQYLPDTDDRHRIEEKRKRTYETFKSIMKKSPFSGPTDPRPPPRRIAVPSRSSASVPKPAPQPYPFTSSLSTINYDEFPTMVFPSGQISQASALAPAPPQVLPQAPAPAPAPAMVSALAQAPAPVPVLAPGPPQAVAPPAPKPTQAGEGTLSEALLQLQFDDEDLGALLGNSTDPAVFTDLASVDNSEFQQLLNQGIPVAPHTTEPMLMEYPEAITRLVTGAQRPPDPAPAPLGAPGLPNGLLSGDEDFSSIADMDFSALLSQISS
UniProt P25963: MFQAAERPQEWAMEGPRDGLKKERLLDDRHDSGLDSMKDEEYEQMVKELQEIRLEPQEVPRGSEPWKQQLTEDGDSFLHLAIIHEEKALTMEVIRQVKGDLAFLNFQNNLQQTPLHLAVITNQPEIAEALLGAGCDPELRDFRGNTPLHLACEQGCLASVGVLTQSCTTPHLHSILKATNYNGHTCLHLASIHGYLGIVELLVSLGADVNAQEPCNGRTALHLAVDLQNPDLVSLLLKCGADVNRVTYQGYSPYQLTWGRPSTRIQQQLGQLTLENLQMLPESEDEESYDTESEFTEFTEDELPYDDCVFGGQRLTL

For experiment [1], the target named is T1, annexin A4 (ANXA4), endogenous (human (endogenous in GBC-SD and NOZ)) (UniProt P09525).
T1 sequence: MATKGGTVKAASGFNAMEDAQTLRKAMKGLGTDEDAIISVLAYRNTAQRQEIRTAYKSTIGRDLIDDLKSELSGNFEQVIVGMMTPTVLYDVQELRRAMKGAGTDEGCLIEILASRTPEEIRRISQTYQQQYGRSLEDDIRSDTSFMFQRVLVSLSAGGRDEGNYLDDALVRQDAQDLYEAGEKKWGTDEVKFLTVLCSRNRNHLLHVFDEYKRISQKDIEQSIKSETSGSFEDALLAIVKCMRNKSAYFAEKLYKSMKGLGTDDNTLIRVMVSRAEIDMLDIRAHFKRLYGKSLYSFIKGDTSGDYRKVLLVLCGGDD
As to the kind of experiment: co-IP; immunoprecipitation of endogenous ANXA4 with an ANXA4 antibody (IgG as control) from extracts of GBC-SD and NOZ cells (non-transfected, scrambled control and ANXA4-knockdown clones); western blot of the immunoprecipitates.

Experiment [2] deals with T2, C-terminal FLAG-tagged ANXA4 (cFLAG-ANXA4) (human) (UniProt P09525).
T2 sequence: T1 sequence
Nature of the experiment: pull-down; His-tag pull-down from nuclear extracts of GBC-SD or NOZ cells transfected with cFLAG-ANXA4 and/or His-p65; western blot with His, FLAG, p50 and IκBα antibodies. For orientation: A western blot detects proteins with antibodies after separation by electrophoresis.

The target in a further experiment is His-tagged p65 (His-p65) (UniProt Q04206). Described as above.
Experiment [3] addresses T3, C-terminal FLAG-tagged ANXA4 (cFLAG-ANXA4) (human), P09525.
T3 chain: T1 sequence
The experiment is described as above. The settings on record: remark: other sources report otherwise.

Results are given in words; binding and its absence hold for the method and conditions named. In cells and extracts the contact can be indirect. Some entries that bind do so weakly or less than the wild type. For some of these results: Sequences can lack the tags named with a protein.

Regarding “nuclear factor-κB (NF-κB) p65 subunit, endogenous (from UniProt Q04206 1-551)”, the binding result in experiment [1] was “binds”.
As to “inhibitor of κB (IκBα), endogenous (from UniProt P25963 1-317)”, the binding entry in experiment [2] is recorded as “no binding”.

B1: NF-κB subunit RelB, endogenous (protein, UniProt Q01201 1-579)
chain: MLRSGPASGPSVPTGRAMPSRRVARPPAAPELGALGSPDLSSLSLAVSRSTDELEIIDEYIKENGFGLDGGQPGPGEGLPRLVSRGAASLSTVTLGPVAPPATPPPWGCPLGRLVSPAPGPGPQPHLVITEQPKQRGMRFRYECEGRSAGSILGESSTEASKTLPAIELRDCGGLREVEVTACLVWKDWPHRVHPHSLVGKDCTDGICRVRLRPHVSPRHSFNNLGIQCVRKKEIEAAIERKIQLGIDPYNAGSLKNHQEVDMNVVRICFQASYRDQQGQMRRMDPVLSEPVYDKKSTNTSELRICRINKESGPCTGGEELYLLCDKVQKEDISVVFSRASWEGRADFSQADVHRQIAIVFKTPPYEDLEIVEPVTVNVFLQRLTDGVCSEPLPFTYLPRDHDSYGVDKKRKRGMPDVLGELNSSDPHGIESKRRKKKPAILDHFLPNHGSGPFLPPSALLPDPDFFSGTVSLPGLEPPGGPDLLDDGFAYDPTAPTLFTMLDLLPPAPPHASAVVCSGGAGAVVGETPGPEPLTLDSYQAPGPGDGGTASLVGSNMFPNHYREAAFGGGLLSPGPEAT
As for B1, the binding result in experiment [1] is reported as “no binding”.

B2: C-terminal FLAG-tagged ANXA4 (cFLAG-ANXA4) (protein, UniProt P09525 1-319)
chain: T1 sequence
On to B2, for which the binding result with His-tagged p65 (His-p65) was “binds”.

B3: NF-κB subunit cRel, endogenous (protein, UniProt Q04864 1-619)
chain: MASGAYNPYIEIIEQPRQRGMRFRYKCEGRSAGSIPGEHSTDNNRTYPSIQIMNYYGKGKVRITLVTKNDPYKPHPHDLVGKDCRDGYYEAEFGQERRPLFFQNLGIRCVKKKEVKEAIITRIKAGINPFNVPEKQLNDIEDCDLNVVRLCFQVFLPDEHGNLTTALPPVVSNPIYDNRAPNTAELRICRVNKNCGSVRGGDEIFLLCDKVQKDDIEVRFVLNDWEAKGIFSQADVHRQVAIVFKTPPYCKAITEPVTVKMQLRRPSDQEVSESMDFRYLPDEKDTYGNKAKKQKTTLLFQKLCQDHVETGFRHVDQDGLELLTSGDPPTLASQSAGITVNFPERPRPGLLGSIGEGRYFKKEPNLFSHDAVVREMPTGVSSQAESYYPSPGPISSGLSHHASMAPLPSSSWSSVAHPTPRSGNTNPLSSFSTRTLPSNSQGIPPFLRIPVGNDLNASNACIYNNADDIVGMEASSMPSADLYGISDPNMLSNCSVNMMTTSSDSMGETDNPRLLSMNLENPSCNSVLDPRDLRQLHQMSSSSMSAGANSNTTVFVSQSDAFEGSDFSCADNSMINESGPSNSTNPNSHGFVQDSQYSGIGSMQNEQLSDSFPYEFFQV
With B3, in experiment [1], the binding entry is reported as “no binding”.

B4: NF-κB subunit p52, endogenous (protein, UniProt Q00653 1-454)
chain: MESCYNPGLDGIIEYDDFKLNSSIVEPKEPAPETADGPYLVIVEQPKQRGFRFRYGCEGPSHGGLPGASSEKGRKTYPTVKICNYEGPAKIEVDLVTHSDPPRAHAHSLVGKQCSELGICAVSVGPKDMTAQFNNLGVLHVTKKNMMGTMIQKLQRQRLRSRPQGLTEAEQRELEQEAKELKKVMDLSIVRLRFSAFLRASDGSFSLPLKPVISQPIHDSKSPGASNLKISRMDKTAGSVRGGDEVYLLCDKVQKDDIEVRFYEDDENGWQAFGDFSPTDVHKQYAIVFRTPPYHKMKIERPVTVFLQLKRKRGGDVSDSKQFTYYPLVEDKEEVQRKRRKALPTFSQPFGGGSHMGGGSGGAAGGYGGAGGGGSLGFFPSSLAYSPYQSGAGPMGCYPGGGGGAQMAATVPSRDSGEEAAEPSAPSRTPQCEPQAPEMLQRAREYNARLFGLA
In the case of B4, the binding result in experiment [1] is “no binding”.

B5: NF-κB p50 subunit, endogenous, P19838 1-433 (protein)
chain: MAEDDPYLGRPEQMFHLDPSLTHTIFNPEVFQPQMALPTDGPYLQILEQPKQRGFRFRYVCEGPSHGGLPGASSEKNKKSYPQVKICNYVGPAKVIVQLVTNGKNIHLHAHSLVGKHCEDGICTVTAGPKDMVVGFANLGILHVTKKKVFETLEARMTEACIRGYNPGLLVHPDLAYLQAEGGGDRQLGDREKELIRQAALQQTKEMDLSVVRLMFTAFLPDSTGSFTRRLEPVVSDAIYDSKAPNASNLKIVRMDRTAGCVTGGEEIYLLCDKVQKDDIQIRFYEEEENGGVWEGFGDFSPTDVHRQFAIVFKTPKYKDINITKPASVFVQLRRKSDLETSEPKPFLYYPEIKDKEEVQRKRQKLMPNFSDSFGGGSGAGAGGGGMFGSGGGGGGTGSTGPGYSFPHYGFPTYGGITFHPGTTKSNAGMKHG
With B5, the binding entry in experiment [3] is given as “no binding”.
